Reference: PubChem BioAssay AID686979 (National Center for Advancing Translational Sciences (NCATS), 2013)
About 50,000 (12%) of roughly 420,000 compounds were called active. Inconclusive means that the source gave no clear call. Such entries were picked first, then a sample of the others. Calls come from the whole dose curve; as a rule, active = well fitted inhibition curve with a large enough effect; inconclusive = small, poorly fitted or top-dose-only effect; inactive = flat fitted curve, though single readings scatter. No potency is given beside an inconclusive call; the fits are too rough.

Assay: qHTS for Inhibitors of human tyrosyl-DNA phosphodiesterase 1 (TDP1): qHTS in cells in presence of CPT; note: nearly all actives have a fitted effect of over 55% in size
Settings: chicken DT40 Tdp1-/-;hTDP1 cells + 20 nM CPT, ATP luminescence, 48 h; activity change, negative = growth inhibition: at 46.2 µM (top of the series) unless noted
Summary of the method: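 Chicken DT40 Tdp1-/- cells stably complemented with human TDP1 were seeded at 400 cells/well in medium containing 20 nM camptothecin, exposed to pin-transferred compounds, and grown at 37 °C for at least 48 hr. Viability was read as ATP luminescence.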
% is set by controls: 0 for no effect and ±100 for the full control effect; potency is the fitted concentration of half-maximal effect; tags give direction and shape of the fitted curve.

| Structure (SMILES) | Potency | activity change, negative = growth inhibition |
| --- | --- | --- |
| CC(COc1cccc2ccccc12)CN1CCN(C)CC1 (centres undefined) | inconclusive [inhibitor, single point] |  |
| c1ccc(-c2nnc(N3CCOCC3)nc2-c2ccccc2)cc1 | active: 16.4 µM |  |
| CC(C(=O)Nc1ccccc1F)N1CCN(S(=O)(=O)c2ccc(C(F)(F)F)cc2)CC1 (centres undefined) |  | inactive: -2.52% |
| COc1ccc(/C=C/C(=O)NC(=S)NNC(=O)c2ccco2)cc1OC | inconclusive [inhibitor, single point] |  |
| O=C(C1CC(=O)N(c2ccc(F)cc2)C1)N1CCN(c2ccc(F)cc2)CC1 (centres undefined) |  | inactive: -22.4% |
| N#Cc1ccccc1S(=O)(=O)N1CCN(c2nc(-c3cccnc3)nc3ccccc23)CC1 | inconclusive [inhibitor, single point] |  |
| C/C=C/c1ccc(OCC(=O)Nc2cc(C(F)(F)F)ccc2N2CCOCC2)c(OC)c1 | inconclusive [inhibitor, single point] |  |
| O=S(=O)(c1ccccc1)c1nnn2c1nc(NC1CCCCCC1)c1sccc12 |  | inactive: -23.6% |
| COc1ccc(NC(=O)CCCOc2ccc(C)cc2)cc1S(=O)(=O)N1CCCCC1 | inconclusive [inhibitor, single point] |  |
| CC(C)N=c1scc(-c2ccco2)n1/N=C/c1ccc(O)c(O)c1 | active: 1.64 µM |  |
| Cc1cc(C)c(O)c(-c2cc(C(=O)Nc3c(C)n(C)n(-c4ccccc4)c3=O)[nH]n2)c1 | inconclusive [inhibitor, single point] |  |
| Cn1c(-c2ccc(C#N)cc2)c(C#Cc2ccccc2)c2ccccc21 |  | inactive: 10% |
| COc1ccc2cc(C(c3nnnn3C3CCCC3)N3CCc4ccccc4C3)c(=O)[nH]c2c1 (centres undefined) | inconclusive [inhibitor, single point] |  |
| Cc1cccc(C)c1NC(=O)CNC(=O)c1ccc2c(c1)NC(=O)CS2 |  | inactive: 7.87% |
| CCNC(=O)c1ccc(NS(=O)(=O)c2ccc3[nH]c(=O)[nH]c3c2)cc1 |  | inactive: 0.368% |
| Cc1ccc2nc(SCC(=O)Nc3ccc4c(c3)OCCO4)[nH]c2c1 |  | inactive: -24.9% |
| CCCC(=O)Nc1ccc(C2C(=O)c3ccccc3C2=O)cc1 | active: 16.4 µM |  |
| CCOc1cc(/C=C2\CCn3c2nc2cc(Cl)ccc2c3=O)ccc1O | inconclusive [inhibitor, partial curve] |  |
| Cc1ccc(S(=O)(=O)NCCC2(C(C)C)CCOC(C)(C)C2)cc1 (centres undefined) |  | inconclusive: -31.4% [inhibitor] |
| CCOc1cc(S(=O)(=O)NCc2ccccc2)ccc1F | inconclusive [inhibitor, single point] |  |
| O=C(NNc1ccc(C2CCCCC2)cc1)C(O)(c1ccccc1)c1cccs1 (centres undefined) | inconclusive [inhibitor, single point] |  |
| COc1ccc(NC(=O)N2CCN(c3cccc(C(F)(F)F)c3)CC2)cc1OC | inconclusive [inhibitor, single point] |  |

| Structure (SMILES) | Potency | activity change, negative = growth inhibition |
| --- | --- | --- |
| Cn1c(C(=O)NCCCN2CCc3ccccc3C2)cc2c(=O)n(C)c3ccccc3c21 | inconclusive [inhibitor, partial curve, poor fit] |  |
| CC(C)(C)S(=O)N1Cc2cc(C(=O)NCc3ccc4c(c3)OCO4)nc(-c3cccc(-c4ccccc4)c3)c2[C@@H]1CCO (some centres undefined) | active: 23.1 µM |  |
| COCCNC(=O)c1cc(C(=O)CC(C)C)c[nH]1 |  | inactive: 2.25% |
| COc1ccc(CCNC(=O)CCOc2ccc(C(C)(C)C)cc2)cc1OC | inconclusive [inhibitor, single point] |  |
| O=C(Nc1ccccc1)Nc1ccc(O)c2ccccc12 | active: 1.64 µM |  |
| Cc1ccc(S(=O)(=O)NCC(=O)N2CCOCCOCCOCC2)cc1 |  | inactive: -10.1% |
| CCOC(=O)C(=CNc1ccc(O)c(C(=O)OC)c1)C(=O)OCC | inconclusive [inhibitor, single point] |  |
| Cc1ccc(NC(=O)CNc2cccc(Br)c2)cc1S(=O)(=O)N1CCOCC1 | inconclusive [inhibitor, single point] |  |
| Clc1ccccc1-c1nnc(CNC2CC2)o1 | inconclusive [inhibitor, partial curve, poor fit] |  |
| O=C(c1cc(S(=O)(=O)N2CCOCC2)ccc1F)N1CCCc2ccccc21 | inconclusive [inhibitor, partial curve] |  |
| COc1ccccc1CNC(=O)C(=O)NCC(c1cccnc1)N1CCN(c2ccc(F)cc2)CC1 (centres undefined) | active: 11.6 µM |  |
| O=C(Nc1ccc(Cl)cn1)C1CCN(S(=O)(=O)c2cccs2)CC1 | inconclusive [inhibitor, single point] |  |
| COc1ccc(CCN2CC(C(=O)N(C)CCc3cn[nH]c3)CCC2=O)cc1 (centres undefined) |  | inactive: -12.8% |
| Cc1ccc(Cn2ccnc2SCC(=O)NC2CCCC2)cc1 | inconclusive [inhibitor, partial curve] |  |
| CCOC(=O)C1(C)CCCN1C(=O)c1cccc(F)c1 (centres undefined) | inconclusive [inhibitor, single point] |  |
| C=CC[C@@H](CC(=O)N[C@@H](CO)Cc1ccccc1)C(=O)N[C@@H](COC(=O)[C@@H](CC=C)Cc1ccc(F)cc1)Cc1c[nH]c2ccccc12 | active: 16.4 µM |  |
| COc1cc(S(=O)(=O)n2ccnc2C(C)C)ccc1Br |  | inactive: 9.65% |
| O=C(O)c1ccc(N=Nc2c(O)[nH]c3ccccc23)cc1 | inconclusive [inhibitor, single point] |  |
| CCOc1ccc(CCNC(=O)CN2C(=O)COc3ccc(S(=O)(=O)N(CC)CC)cc32)cc1 | active: 23.1 µM |  |
| CCCN1C(=O)/C(=C/c2c(N3CCNC(=O)C3CC(=O)OCC)nc3c(C)cccn3c2=O)SC1=S (centres undefined) | active: 18.4 µM |  |
| Cc1c(C(=O)NCc2ccc(C#N)cc2)sc(=O)n1Cc1ccc(C(=O)N(C)C)cc1 | inconclusive [inhibitor, partial curve, poor fit] |  |
| COc1ccc([C@@H]2[C@@H]3C(=O)N(C(C)(C)C)C(=O)[C@@H]3[C@]3(Cc4ccccc4)C(=O)N(c4ccc(Br)cc4)C(=O)N23)cc1 | active: 23.1 µM |  |
